Target: T1, CFP-NaV1.2 (rat)
T1 construct: Rat voltage-gated sodium channel NaV1.2 pore-forming α-subunit; also called rat NaV1.2 α-subunit; SCN2a; source: CHO-K1 cells, transfected (Lipofectamine 2000), in live cells; not shown: CFP, N-terminal, kept
Assay: single-particle two-colour TIRF microscopy with counting of photobleaching steps; live CHO cells co-expressing CFP-tagged channel, mCherry-SUMO1 and β1; ambient O2, hypoxia and recovery; room temperature
Settings: partners not purified

stoichiometry N: 1 SUMO1: NaV1.2
B1: mCherry-SUMO1 (natural protein)
chain: not shown
notes: Human SUMO1, printed as SUMO1_(101): the 101-residue form, of which the mature form is SUMO1_(97) ending in Gly-Gly; The association with NaV1.2 is a covalent linkage (SUMOylation) to Lys38; also called m-SUMO1; mSUMO1; source: CHO-K1 cells, transfected, in live cells; not shown: mCherry, N-terminal, kept
